Results taken from PMC4336329 (PLoS ONE, 2015).
The whole screen tested about 310,000 compounds, of which about 2,200 (0.71%) showed an effect of 50% or more. Effects have a minus sign here. The list shows a part of the results.

Each compound was assayed against human ether-à-go-go-related gene (hERG) potassium channel (human, UniProt Q12809) (assay: primary screen, population patch clamp on CHO cells stably expressing hERG).
human ether-à-go-go-related gene (hERG) potassium channel, sequence (Q12809 whole entry, looked up): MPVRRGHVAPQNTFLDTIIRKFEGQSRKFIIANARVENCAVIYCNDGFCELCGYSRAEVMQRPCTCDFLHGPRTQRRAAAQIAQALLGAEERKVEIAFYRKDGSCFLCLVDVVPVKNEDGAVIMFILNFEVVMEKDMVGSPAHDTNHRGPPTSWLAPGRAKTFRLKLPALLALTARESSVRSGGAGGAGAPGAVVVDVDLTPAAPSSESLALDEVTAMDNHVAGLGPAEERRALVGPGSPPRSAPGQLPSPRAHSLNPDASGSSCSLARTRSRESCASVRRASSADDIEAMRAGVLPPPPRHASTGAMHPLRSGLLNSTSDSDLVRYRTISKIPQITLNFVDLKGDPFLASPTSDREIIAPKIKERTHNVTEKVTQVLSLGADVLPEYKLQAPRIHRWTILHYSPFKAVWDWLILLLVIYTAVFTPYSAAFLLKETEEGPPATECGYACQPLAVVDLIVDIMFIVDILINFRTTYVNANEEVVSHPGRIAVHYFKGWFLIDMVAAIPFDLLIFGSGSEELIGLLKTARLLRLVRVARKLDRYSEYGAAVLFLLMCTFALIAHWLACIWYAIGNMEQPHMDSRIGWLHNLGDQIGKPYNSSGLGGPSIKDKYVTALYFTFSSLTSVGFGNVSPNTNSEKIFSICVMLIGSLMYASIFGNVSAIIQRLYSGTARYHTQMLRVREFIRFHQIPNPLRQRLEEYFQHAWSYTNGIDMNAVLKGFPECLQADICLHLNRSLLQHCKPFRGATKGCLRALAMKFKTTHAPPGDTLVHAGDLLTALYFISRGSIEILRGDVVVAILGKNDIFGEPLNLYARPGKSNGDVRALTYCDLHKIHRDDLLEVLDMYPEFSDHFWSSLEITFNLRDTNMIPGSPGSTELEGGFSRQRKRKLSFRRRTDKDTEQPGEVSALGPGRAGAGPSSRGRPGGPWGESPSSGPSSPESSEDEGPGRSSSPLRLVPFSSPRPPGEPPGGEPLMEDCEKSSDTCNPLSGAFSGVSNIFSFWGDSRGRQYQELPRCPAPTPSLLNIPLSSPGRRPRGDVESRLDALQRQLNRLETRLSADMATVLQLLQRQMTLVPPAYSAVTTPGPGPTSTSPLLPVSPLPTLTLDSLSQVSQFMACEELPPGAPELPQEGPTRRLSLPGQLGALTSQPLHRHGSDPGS

Compound | hERG current change (%, negative = inhibition) at 1uM [%]
CC(C)[C@H](NC(=O)c1c(F)cccc1F)C(=O)Nc1cccc(Br)c1 | 9.63
COc1ccc(-c2noc(CSc3nc(N)c(-c4ccccc4)c(=O)[nH]3)n2)cc1OC | 8.92
C#CC[N+](C)(C)CCCCCCCC.[Br-] | 1.78
Cc1nn(CC(=O)NCCc2cccs2)c(=O)c2cc3ccccc3n12 | 22.9
COC(=O)c1ccc(NC(=O)CN2CCN(c3ccccc3)CC2)cc1 | -3.6
Cc1cc(C)n(CC(=O)n2c(C)c(C)c3ccccc32)n1 | 14.4
Cc1cccc(NS(=O)(=O)c2cccc3nsnc23)c1 | 0.0053
CCC(Oc1ccccc1)C(=O)N1CCN(C(=O)C(CC)Oc2ccccc2)CC1 (centres unmarked) | -4.43
CCCc1ccc2oc(C(=O)NCCN3CCCC(C(N)=O)C3)c(C)c2c1 (centres unmarked) | -8.03
O=C(CCNC(=O)C1CCN(S(=O)(=O)c2ccccc2)CC1)NCc1ccc(Cl)cc1Cl | -12.1
O=C(OCC(=O)c1cccs1)c1ccccc1 | 0.925
O=c1cc(CO)occ1OCc1cccc(C(F)(F)F)c1 | 5.96
Cc1ccnc(NC(=O)c2ccc(Cl)c(S(=O)(=O)N3CCCC3)c2)c1 | 15.5
CCCCc1nc2ccccc2c(=O)n1NC(=O)c1c(O)c2ccccc2n(C)c1=O | 14.3
COc1ccc(N2CCN(S(=O)(=O)CCNC(=O)COc3ccccc3C)CC2)cc1 | 5.85
CCOc1ccc(/C=C2\SC(=S)N(NC(=O)c3ccncc3)C2=O)cc1OC | 13.1
Cc1ccc(-n2c(SCC(=O)N3CCOCC3)nnc2-c2ccncc2)cc1C | 7.61
Cc1ccc(S(=O)(=O)N(C)c2c(C)ccc(S(=O)(=O)Nc3ccncc3)c2C)cc1 | 7.32
CC(/C=N/Nc1nncc(=O)[nH]1)=C\c1ccccc1 | 7.39

Compound | hERG current change (%, negative = inhibition) at 1uM [%]
CNC(=O)c1csc(-c2ccccc2)n1 | -4.25
Cc1ccc(C(=O)NCc2n[nH]c(=S)n2-c2ccccc2)cc1[N+](=O)[O-] | 12.2
COc1cccc(-c2cc(C(=O)Nn3cnnc3)c3ccccc3n2)c1 | 9.72
CC1CN=C(N(Cc2ccccc2)C(=O)Nc2ccccc2)S1 (centres unmarked) | 22.4
CCCCCOC(=O)CSc1nc2c(c(=O)[nH]c(=O)n2C)n1Cc1ccc(Cl)cc1 | 6.19
Cn1c(N)c(C(=O)COC(=O)c2ccc([N+](=O)[O-])o2)c(=O)n(C)c1=O | 2.79
CN1CCN(CC(=O)NN2CC(=O)N(c3ccc(F)cc3)CC2=O)CC1 | 5.9
O=[N+]([O-])c1ccccc1S(=O)(=O)Nc1ccc(-c2ccc(N3CCCC3)nn2)cc1 | 17.7
COc1ccccc1-n1c(CNC(=O)c2ccc(S(=O)(=O)N3CCCCC3)cc2)n[nH]c1=S | 18.3
COc1ccc2cc(C3(C)NC(=O)N(CC(=O)NCC(F)(F)F)C3=O)ccc2c1 (centres unmarked) | 12.1
COc1ccc(NS(=O)(=O)c2ccc(-c3ccccn3)s2)cc1 | 8.18
COc1ccc(C2CC(c3ccccc3)=NN2S(=O)(=O)c2ccccc2)cc1 (centres unmarked) | 12.6
C/C(N)=C(/C#N)C(=O)CSc1nnc(C)n1-c1ccccc1 | 12.2
CCOC(=O)c1c(-c2ccc(Cl)cc2)c(C#N)c(=O)n(N)c1N | 1.46
O=C(CCc1ccccc1)Nc1ccc(Cl)cn1 | 5.8
COc1ccc(N/C=C/C(=O)c2ccc3c(c2)OCO3)cc1OC | 13.6
C/C=C/C(=O)OCC(=O)Nc1cc(-c2cc(C)c(C)cc2C)nn1-c1ccccc1 | 10.2
CC1CC(C)CN(S(=O)(=O)N2CCCC(C(=O)NC3CCCCC3C)C2)C1 (centres unmarked) | 9.93
Cc1cccc(NC(=S)NCCc2ccc(F)cc2)c1C | 11.9

Compound | hERG current change (%, negative = inhibition) at 1uM [%]
Cn1c(CC(=O)NCCO)c(Sc2ccccc2)c2ccccc21 | -2.03
Cc1ccc(CSc2nnc(Cn3c(=O)sc4ccccc43)n2C)cc1 | -3.78
Cc1[nH]c(C)c(S(=O)(=O)N2CCC(C)CC2)c1C(=O)N1CCCC1 | 2.54
CCn1cc(C(=O)NCCc2ccccc2)c(=O)c2cc(S(=O)(=O)N3CCCC3)ccc21 | 15.7
COc1cc(-c2noc(CCCC(=O)Nc3ccc(C(N)=O)cc3)n2)cc(OC)c1OC | 8.92
CCOC(=O)CSc1nnc(CSc2nc3sc4c(c3c(=O)[nH]2)CCC4)n1C | 8.77
Cc1nnc(-c2ccc(Oc3ccc(C)c(C)c3)c([N+](=O)[O-])c2)o1 | -2.87
CC(=O)N(C)c1ccc(N=Nc2c(C)[nH]n(-c3ccccc3)c2=O)cc1 | 8.98
CC(=O)Nc1ccc(SC(C)C(=O)NC2CCCC2)cc1 (centres unmarked) | 11
Cc1nn(-c2ccccc2)c(C)c1C(=O)OCC(=O)Nc1ccc2c(c1)OCO2 | -13.6
O=C(CCc1c[nH]c2ccccc12)Nc1ncccc1O | 10.9
O=C(CCNS(=O)(=O)c1ccc(OC(F)(F)F)cc1)NCCc1c[nH]c2ccccc12 | 5.35
COc1ccc(-c2csc(NC(=O)COC(=O)C3=COCCO3)n2)cc1 | 13.6
Nc1ccc(NC(=S)Nc2ccccc2)cc1 | 10.1
CCN(CC)S(=O)(=O)c1ccc2oc(SCC(=O)NC3CC3)nc2c1 | 6.39
CCN(CC)C(C(=O)Nc1ccc2c(c1)OCO2)c1ccccc1 (centres unmarked) | -2.71
COc1cccc(CNC(=O)CC(NC(=O)c2ccccc2)c2ccccc2)c1 (centres unmarked) | -3.32
Cc1nc2ccc(NC(=S)N3CCCC3)cc2nc1C | 15.2
